Results from article PMC2566891 (Nucleic Acids Research, 2008).

Biological target: T1, 14-3-3ɛ (UniProt P62258 1-255)
T1 sequence: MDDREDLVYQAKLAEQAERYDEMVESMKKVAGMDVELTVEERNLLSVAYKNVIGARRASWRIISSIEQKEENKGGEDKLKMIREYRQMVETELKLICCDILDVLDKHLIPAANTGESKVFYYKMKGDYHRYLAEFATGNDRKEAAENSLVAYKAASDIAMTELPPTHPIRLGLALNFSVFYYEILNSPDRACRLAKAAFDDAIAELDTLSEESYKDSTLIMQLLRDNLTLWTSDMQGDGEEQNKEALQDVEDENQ
Experiment: fluorescence polarisation

Kd: 310 ± 8 nM
B1: p53TCT pS366/pT387 ([…]) (domain or fragment)
chain: not shown
